# The list shows a part of the results. Sequences were assembled here from the parent chain. Inactive controls read about 0.05.
# B1: TEV protease; numbered along this chain (parent)
# chain: MGESLFKGPRDYNPISSSICHLTNESDGHTTSLYGIGFGPFIITNKHLFRRNNGTLVVQSLHGVFKVKDTTTLQQHLVDGRDMIIIRMPKDFPPFPQKLKFREPQREERICLVTTNFQTKSMSSMVSDTSCTFPSGDGIFWKHWIQTKDGQCGSPLVSTRDGFIVGIHSASNFTNTNNYFTSVPKNFMELLTNQEAQQWVSGWRLNADSVLWGGHKVFMVKPEEPFQPVKEATQL
# Variants of: B1
# Assay: raw area under fraction-flipped curve 0-4 h after induction (AUC4h, not background-subtracted), DNA-recorder readout of cleavage of the substrate (dimensionless); higher = more cleavage of the substrate by the protease variant
# Details: temperature: 34 °C; time window: 0-4 h after rhamnose induction
# Method: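 In vivo DNA recorder in E. coli TOP10(DE3) ΔrhaA at 34 °C. Each TEVp single-site mutant (parent TEVp 0) is paired with a single-site variant of the 7-mer TEVs (canonical ENLYFQ|S). The substrate sits between flexible linkers in a Bxb1-sfGFP-TEVs-SsrA fusion, so cleavage stabilises Bxb1 and speeds flipping of a recombination array, read by NGS. The value is the raw area under the fraction-flipped curve over 0-4 h after rhamnose induction (AUC4h), with ≥20 reads per time point. It is not background-subtracted; inactive controls average about 0.047.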
# 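Also: Bxb1 expression induced with 0.2% (w/v) L-rhamnose at OD600 near 0.5, cultures sampled hourly, flipped fraction per protease–substrate barcode pair counted by paired-end Illumina sequencing.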
Variant,area with substrate CNLYFQS,area with substrate DNLYFQS,area with substrate FNLYFQS,area with substrate HNLYFQS,area with substrate INLYFQS,area with substrate MNLYFQS,area with substrate NNLYFQS,area with substrate PNLYFQS,area with substrate SNLYFQS,area with substrate TNLYFQS,area with substrate WNLYFQS,area with substrate GNLYFQS,area with substrate LNLYFQS,area with substrate YNLYFQS,area with substrate VNLYFQS,area with substrate KNLYFQS,area with substrate QNLYFQS,area with substrate RNLYFQS
M125R,0.0774,0.0794,0.0885,0.0668,0.0416,0.0792,0.0758,0.0725,0.0818,0.0726,0.0455,,,,,,,
M125S,0.0598,0.0611,,0.0712,0.0577,,,0.0675,0.0624,0.0096,0.0689,0.0572,0.0724,0.0624,,,,
M125E,0.0631,0.0895,,0.0592,,0.06,0.0442,0.0722,0.0642,0.0625,0.0821,,0.0722,0.0533,0.0597,,,
S124T,0.061,0.0814,,0.0625,,0.0261,,0.0491,0.0727,0.0637,0.0689,0.0679,0.0658,0.0643,,0.0673,0.0822,
S124I,0.0686,0.0908,,0.0593,,0.0441,,0.0668,0.0563,,,0.0304,0.058,0.0672,0.0383,0.0835,,
S124F,0.0766,0.0936,0.0547,0.0559,0.0491,0.0733,0.0719,0.0683,0.0664,0.0873,0.0674,0.0705,,,,,,
S124A,0.0584,0.081,,0.0777,,0.0643,,,,0.06,0.0527,,,0.0627,0.0715,0.0381,,0.065
V126E,0.0545,0.0913,0.0738,0.0816,,0.0695,,0.0125,,,0.0688,0.0734,,0.0668,0.0819,0.047,0.0773,0.0581
W141C,0.0552,0.0183,,0.0557,0.0622,,0.0666,0.0994,0.0624,0.0496,0.0617,0.0586,0.0109,0.0589,,0.0636,,0.0572
W141R,0.0534,0.0877,0.0425,,0.0581,0.0625,,,0.0459,0.0635,0.0316,0.051,0.0454,,0.0466,,0.062,
S121P,0.0538,0.116,0.0371,0.0689,,0.0916,,,,0.0759,0.0586,0.0716,,,0.0358,0.0614,0.0835,
S121G,0.0609,0.0861,,0.0628,,0.0809,,0.0894,,0.0728,0.0651,0.0303,,0.075,0.0651,0.0642,0.0541,
C131D,0.0829,0.0704,,0.0732,,,,,,,0.0652,0.0662,0.0778,0.0588,,0.0735,,
S123E,0.0665,0.0845,,0.0705,0.0688,0.0615,0.0689,0.0611,0.0587,0.061,0.0677,0.0584,,,,0.067,0.0361,
S123G,0.066,0.0829,,0.0614,0.0697,0.006,0.0729,0.0547,0.0678,0.072,0.0629,0.0814,0.0695,0.0485,0.0672,0.0588,0.0659,0.0654
Q105E,0.0668,0.103,,,,0.0629,0.0764,,0.0806,0.0799,0.0587,0.0766,,0.0534,,,,
Q105Y,0.0705,0.0778,,0.058,,0.0601,0.0674,0.0653,0.0765,0.0663,0.0625,0.0685,0.0601,0.0313,,0.0663,,
E108M,0.0599,0.0664,0.0517,0.0635,,,0.0702,0.0573,,0.0768,0.0514,0.0593,0.0567,0.0601,,0.0405,,
E108D,0.0628,0.0802,0.0325,0.0595,,0.073,0.0729,0.0735,0.0649,0.0631,0.0483,0.0926,0.0633,0.0554,0.0712,,,
S127M,0.0764,0.0909,,0.13,0.0617,,0.0641,0.0744,0.0648,0.0643,0.0572,0.0719,,,,0.0652,0.0694,
Q118M,0.072,0.107,,0.0632,,,,,0.0634,,0.046,,0.0747,,0.0482,0.0622,,
Q118V,0.0644,0.0484,0.0697,0.0566,,0.0833,,0.0778,,,0.0639,,0.0298,0.0698,,,,
T132Q,0.06,0.0603,0.0522,0.0644,,,0.0655,,0.0629,0.0752,,0.0644,,0.0579,,,0.0699,
L112R,0.0709,0.0878,0.0692,0.057,0.0618,,0.0648,0.0611,0.0682,0.0581,0.0576,0.0703,0.0544,0.0471,,0.0668,,
G138V,0.0581,0.0523,,0.0554,0.0532,,,0.0575,,0.0551,0.0479,,0.0634,0.064,0.0605,,,
G138N,0.0662,0.073,0.0599,,,0.0514,0.0379,,,0.0628,0.0631,,0.0511,0.041,,0.059,,
I139P,0.0634,0.068,,0.055,0.0722,0.0561,,0.053,0.0591,0.069,0.0746,,,0.0606,,,,
I139W,0.0816,0.0682,0.0645,0.0578,0.0391,0.0578,0.0752,,0.0759,0.0715,0.0746,0.069,0.083,,,0.0469,,
E103V,0.0562,0.0856,,0.0724,0.062,0.0604,0.066,0.0676,,,0.0593,,0.069,0.0566,0.0513,,0.0742,0.0682
